The campaign covered roughly 52,000 compounds. About 4,300 (8.3%) were called active. Rule as the data show it: active = survival mostly below about 52% (no sharp cut-off); inactive = mostly above about 56%. Some of the results follow.
What follows are molecules tested on DeltatarO mutant (assay: S. aureus survival, RN4220 and DeltatarO strains – OD600, teichoic acid synthesis inhibitors, primary screen (AID 463173)). Settings: S. aureus RN4220 wild type/DeltatarO growth, OD600, 18 h, active compounds read low, screened at 18.75 µg/mL (by protocol).
With `Cc1nc(N)sc1C(N)=O` the survival was inactive: 82%.
`COc1ccc(-c2cnnn2-c2ccc(NC(=O)c3c(F)cccc3F)cc2)cc1` was tested, and the survival was inactive: 98%.
For `COc1ccc(-c2cnnn2-c2ccc(NC(=O)c3ccc(S(=O)(=O)N(C)C)cc3)cc2)cc1`, the survival was inactive: 81%.
For `CC(=O)c1cc(-c2ccccc2)n(CC(=O)NC2CCCCC2)c1C`, the survival was inactive: 80%.
For `Cc1cc(C)c2c(CC(=O)Nc3c(C(=O)Nc4ccc(Cl)cc4)oc4ccccc34)coc2c1`, the survival was inactive: 77%.
For `COc1ccc(CNC(=O)CN2C(=O)c3cccnc3Oc3ccc(C)cc32)cc1`, the survival was inactive: 98%.
For `CCc1cccc(C)c1NC(=O)CSc1nnc(CC)n2c1cc1occc12`, the survival was inactive: 67%.
With `Cc1cc(OCC(=O)N(Cc2sccc2C)C2CCS(=O)(=O)C2)ccc1Cl` (configuration not stated) the survival was inactive: 81%.
For `COc1ccc(Nc2cc(C(=O)NCc3ccccc3OC)c3ccccc3n2)cc1`, the survival was active: -5%.
For `COc1ccc(N2CCN(c3oc(/C=C/c4cc(OC)c(OC)c(OC)c4)nc3C#N)CC2)cc1`, the survival was active: 49%.
In the case of `COc1ccc(F)cc1S(=O)(=O)NCCc1sc2nc(-c3ccc(F)cc3)nn2c1C`, the survival is reported as inactive: 90%.
For `CCc1nnc(SCC(=O)Nc2ccc(F)cc2F)c2cc3sc(C)cc3n12`, the survival was inactive: 103%.
`CCOC(=O)c1ccccc1NC(=O)N(C)CCc1c(C)nn(CC)c1C` was tested, and the survival was inactive: 78%.
With `Cc1cc(C)cc(Oc2nc3c(c(=O)n(C)c(=O)n3C)n2Cc2ccc(F)cc2)c1` the survival was inactive: 76%.
For `CCc1ccc(CNC(=O)CN2CCSc3ccccc32)cc1`, the survival was inactive: 86%.
With `CCOC(=O)N1CCc2c(sc3c2c(=O)n(CCc2ccccc2)c(=O)n3Cc2c(F)cccc2Cl)C1` the survival was inactive: 85%.
In the case of `O=C(CN1C(=O)COc2ccc(S(=O)(=O)N3CCCCCC3)cc21)NCc1ccc(F)cc1`, the survival is reported as inactive: 68%.
With `Cc1ccc(NC(=O)CSc2nc3n[nH]c(C)c3c(=N)n2-c2cccc(C)c2)cc1` the survival was active: -5%.
`CCCSCCCNC(=O)c1ccc2nc(Cc3ccccc3)oc2c1` was tested, and the survival was inactive: 69%.
In the case of `CCSc1ncc(Cl)c(C(=O)Nc2ccc(S(=O)(=O)N(C)c3ccccc3)cc2)n1`, the survival is reported as inactive: 71%.
With `COc1ccccc1CNC(=O)c1ccc(-c2nc(CN3CCc4ccccc43)c(C)o2)cc1` the survival was inactive: 75%.
For `Cc1ccc(OCC(=O)Nc2ccc3nc(SCC(=O)N4CCc5ccccc54)sc3c2)cc1`, the survival was inactive: 57%.
In the case of `COc1ccc(NC(=O)c2cccn2-c2nnc(N3CCCCC3)s2)cc1`, the survival is reported as inactive: 71%.
For `O=C(O)CCCN1CCCC1=O`, the survival was inactive: 81%.
In the case of `Cc1cc(C)cc(OCC(=O)Nc2ccc(-c3nc4ccccc4o3)cc2)c1`, the survival is reported as inactive: 51%.
`Cc1cc(C)c2c(CC(=O)N(Cc3ccccc3)C3CCS(=O)(=O)C3)coc2c1` (configuration not stated) was tested, and the survival was inactive: 76%.
For `CCC(=O)N1CCc2cc(S(=O)(=O)NC(C(=O)Nc3ccc(C(C)=O)cc3)C(C)C)ccc21` (configuration not stated), the survival was inactive: 94%.
For `Cn1c(=O)oc2cc(S(=O)(=O)Nc3ccc(C(=O)O)cc3)ccc21`, the survival was inactive: 109%.
For `CCC(=O)N1CCc2cc(Br)cc(S(=O)(=O)N3CCCC(C(=O)N(C)c4ccc(Br)cc4)C3)c21` (configuration not stated), the survival was inactive: 118%.
With `Clc1ccc(N2CCN(c3ncnc4c3nc3n4CCCC3)CC2)cc1` the survival was inactive: 101%.
With `COc1ccc(-c2nc(CS(=O)CC(=O)NCc3ccccc3OC)c(C)o2)cc1` (configuration not stated) the survival was inactive: 124%.
In the case of `COc1ccc2c(c1)CC(C(=O)NCCCN1CCN(c3ccc(F)cc3)CC1)CO2` (configuration not stated), the survival is reported as inactive: 79%.
With `COc1cccc(N2CCN(C(=O)C3CCN(S(=O)(=O)c4ccc5c(c4)oc(=O)n5C)CC3)CC2)c1` the survival was inactive: 94%.
For `COc1cccc(C(=O)Nc2cc3c(cc2C(=O)c2ccc(C)cc2)OCCO3)c1`, the survival was inactive: 78%.
In the case of `CCOC(=O)C1CCCN(c2nc3c(S(=O)(=O)c4ccc(C)c(C)c4)nnn3c3ccc(Cl)cc23)C1` (configuration not stated), the survival is reported as inactive: 87%.
For `CCn1c(=O)c2sccc2n2c(CCC(=O)Nc3cc(C)cc(C)c3)nnc12`, the survival was inactive: 74%.
For `Cc1ccc(Cl)cc1N1CCN(c2ncnc3onc(C)c23)CC1`, the survival was active: 52%.
`NS(=O)(=O)c1ccc(N=NSCCO)cc1` was tested, and the survival was inactive: 67%.
In the case of `COc1ccc(S(=O)(=O)N(Cc2cc3c(C)cc(C)cc3[nH]c2=O)CC2COCCO2)cc1` (configuration not stated), the survival is reported as inactive: 86%.
In the case of `Cc1ccc(NC(=O)c2c(C)oc3ccc(O)c(CN4CCCCCC4)c23)c(C)c1`, the survival is reported as inactive: 74%.
`CCOC(=O)c1[nH]c(C)c(CCC(=O)NCc2ccc(OCC)cc2)c1C` was tested, and the survival was inactive: 94%.
In the case of `COc1ccc2c(C)c(CC(=O)NCc3ccc(C)cc3)c(=O)oc2c1OC`, the survival is reported as inactive: 106%.
For `CC(C)OCCCNC(=O)c1cc2c(-c3ccc(Cl)cc3)nn(C)c2s1`, the survival was inactive: 122%.
For `O=C(Nc1ccc2c(c1)Cc1ccccc1-2)c1ccc(Br)o1`, the survival was inactive: 88%.
With `COc1cc(NC(=O)C2CCCN(S(=O)(=O)c3ccc4c(c3)oc(=O)n4C)C2)c(C(=O)O)cc1OC` (configuration not stated) the survival was inactive: 101%.
In the case of `CCCCC(Sc1nc2cc3c(cc2c(=O)n1CCCC(=O)NCc1ccc(OC)cc1)OCO3)C(=O)OCC` (configuration not stated), the survival is reported as inactive: 87%.
`Cc1cccc(C)c1Nc1sc(C(=O)c2ccccc2)c(N)c1C(=O)Nc1ccc(F)cc1` was tested, and the survival was inactive: 81%.
In the case of `O=C(O)C1CC=CCC1C(=O)NCCc1ccccc1` (configuration not stated), the survival is reported as inactive: 96%.
In the case of `O=C(Cc1cccs1)Nn1c(Cc2cccs2)nc2ccccc2c1=O`, the survival is reported as inactive: 58%.
With `CCc1cccc(NC(=O)Cn2nc(-c3ccc(OC)cc3)ccc2=O)c1` the survival was inactive: 83%.
`CCOC(=O)c1ccc(N2C(=O)c3n[nH]c(-c4cccs4)c3C2c2ccc(C(C)(C)C)cc2)cc1` (configuration not stated) was tested, and the survival was inactive: 102%.
With `O=C(Nc1nc2n(n1)C(c1ccccc1)C=C(c1ccccc1)N2)c1ccc(Cl)c([N+](=O)[O-])c1` (configuration not stated) the survival was inactive: 63%.
In the case of `COc1cccc(-c2ccc3c(N)c(C(=O)c4ccc(Cl)cc4)sc3n2)c1`, the survival is reported as active: 30%.
`COc1cccc(C(=O)N2c3cc(C)ccc3C(C)(c3ccccc3)CC2(C)C)c1` (configuration not stated) was tested, and the survival was active: 1%.
With `N#C/C(=C\c1ccc(Cl)cc1)c1nc(-c2cc3ccccc3oc2=O)cs1` the survival was inactive: 75%.
With `CCOC(=O)c1c(-c2ccccc2)oc2cc(CN(C)C)c(O)c(CN(C)C)c12` the survival was inactive: 127%.
In the case of `CCc1ccc(CNC(=O)c2cnc3sc4cc(OC)ccc4n3c2=O)cc1`, the survival is reported as inactive: 84%.
With `CCCn1c2ccccc2c2cnn(CC(=O)N3CCC(C)CC3)c(=O)c21` the survival was inactive: 76%.
For `O=C(CN(CC1CCCO1)S(=O)(=O)c1ccc(S(=O)(=O)N2CCOCC2)cc1)Nc1ccccc1` (configuration not stated), the survival was inactive: 89%.
In the case of `O=C(NCc1ccccc1F)c1ccc(CN2CC(=O)N3CCCCC3C2=O)cc1` (configuration not stated), the survival is reported as inactive: 73%.
With `Cc1ccc(NCc2nnc(SCC(=O)O)n2-c2cccc(Cl)c2)cc1` the survival was inactive: 106%.
With `CC1=C(C#N)C(c2cccc(O)c2)C2=C(CC(c3ccccc3)CC2=O)N1` (configuration not stated) the survival was inactive: 94%.
In the case of `Cc1cc(C)c(NC(=O)Cn2c(=O)n(Cc3ccc4c(c3)OCO4)c(=O)c3ccc(C(=O)NC4CCCCC4)cc32)c(C)c1`, the survival is reported as inactive: 92%.
In the case of `C=Cc1ccc(Cn2nc(-c3ccc(C)c(S(=O)(=O)N(CC)CC)c3)ccc2=O)cc1`, the survival is reported as inactive: 53%.
`COc1ccc2cc(-c3nc4ccc(C(=O)O)cc4[nH]3)c(=O)oc2c1` was tested, and the survival was inactive: 57%.
`COCCCNC(=O)CCCCn1c(=O)c2ccccc2n(CC(=O)Nc2ccc(C)cc2C)c1=O` was tested, and the survival was inactive: 94%.
With `Cn1nc(-c2ccc(C(=O)Nc3ccc(F)cc3)cc2)c2ccccc2c1=O` the survival was inactive: 61%.
`Cc1cccn2c(=O)c3cc(C#N)c(=O)n(-c4nnc(SCc5ccccc5F)s4)c3nc12` was tested, and the survival was inactive: 70%.
For `COCCNC(=O)CSc1nc2cc3c(cc2c(=O)n1CCCCCC(=O)NCc1ccc(OC)cc1)OCO3`, the survival was inactive: 67%.
For `COc1ccc(CNC(=O)c2ccc3c(c2)nc2n3CCC(C)C2)c(OC)c1` (configuration not stated), the survival was inactive: 99%.
With `CC(C)c1ccc(S(=O)(=O)NCc2ccc3c(c2)CCN3C(=O)c2ccccc2)cc1` the survival was inactive: 87%.
For `CCOc1ccccc1NC(=O)Cn1nnc2sc(-c3ccccc3)cc2c1=O`, the survival was active: 39%.
For `Cc1cccc(-c2nnc(N(C(=O)C3CCC3)C(C)C)s2)c1`, the survival was inactive: 113%.
With `COc1ccc(Nc2ncc3c(n2)CCN(Cc2cc(Br)cs2)C3)c(OC)c1` the survival was inactive: 75%.
In the case of `CCC1/C(=N\O)CC(c2ccco2)NC1c1ccco1` (configuration not stated), the survival is reported as inactive: 84%.
In the case of `CCOC(=O)c1ccc(N2CCN(c3cc(C)ccc3C)CC2)c(NC(=O)Nc2ccccc2)c1`, the survival is reported as inactive: 79%.
In the case of `COc1ccccc1NC(=O)c1cc2c(=O)oc3ccc(C)cc3c2s1`, the survival is reported as inactive: 63%.
For `O=C(O)CSc1c2c(nc3cc(C(=O)Nc4ccc(F)c(Cl)c4)ccc13)CCC2`, the survival was inactive: 88%.
With `CN1CCN(C(=O)/C(=C/c2ccc(N(C)C)cc2)NC(=O)c2ccccc2)CC1` the survival was inactive: 78%.
In the case of `Cc1ccc(NC(=O)CSc2nc3c(oc4ccccc43)c(=O)n2-c2ccc(F)cc2)c(C)c1`, the survival is reported as inactive: 67%.
`Cc1sc(N)nc1-c1cccs1` was tested, and the survival was inactive: 96%.
`O=C(Nc1ccc(C(F)(F)F)cc1)C1CCCN(c2cnccn2)C1` (configuration not stated) was tested, and the survival was inactive: 81%.
`CC1CN(C(=O)Nc2ccc(C(=O)NCc3cccc(F)c3)cc2)c2ccccc2S1` (configuration not stated) was tested, and the survival was inactive: 57%.
For `O=c1c(S(=O)(=O)c2ccccc2)cn(Cc2ccccc2)c2cc(N3CCOCC3)c(F)cc12`, the survival was inactive: 85%.
With `CC(C(=O)NCc1ccccc1F)n1ccc2cc(S(=O)(=O)N3CCCC3)ccc21` (configuration not stated) the survival was inactive: 60%.
In the case of `COc1ccc(Br)cc1C(=O)Nc1nc2ccc(F)cc2s1`, the survival is reported as inactive: 80%.
With `CCOc1ccccc1NC(=O)c1c(NC(=O)c2cccc(C)c2)sc2c1CCCC2` the survival was inactive: 76%.

From PubChem BioAssay AID463173 (ICCB-Longwood Screening Facility, Harvard Medical School, 2010)
